Results as given in article PMC5540273 (PLoS ONE, 2017).
For some of these results: Shown are results outside the selection of strong results, which stands elsewhere. Only a part is listed here, and it is no random draw.

Key:
Conditions in all cases: concentration: 1 μM,replicates: in singlicate; n = 1
LZK = test system: T1, LZK
T1 construct: gene MAP3K13

MAK = test system: MAK
MAP3K15 = test system: MAP3K15
MAP3K1 = test system: MAP3K1
MAP3K2 = test system: MAP3K2
MAP3K3 = test system: MAP3K3
MAP3K4 = test system: MAP3K4
MAP4K2 = test system: MAP4K2
MAP4K3 = test system: MAP4K3
MAP4K4 = test system: MAP4K4
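Further: KINOMEscan kinase panel screen.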

SMILES	%Inh (LZK) [%]	%Inh (MAK) [%]	%Inh (MAP3K15) [%]	%Inh (MAP3K1) [%]	%Inh (MAP3K2) [%]	%Inh (MAP3K3) [%]	%Inh (MAP3K4) [%]	%Inh (MAP4K2) [%]	%Inh (MAP4K3) [%]	%Inh (MAP4K4) [%]
O=C1NC(=O)C(c2ccc(Cl)cc2)=C1Nc1ccc(O)c(Cl)c1 [SB-405367]	0	16	0	11	25	21	17	0	0	0
CS(=O)(=O)c1ccccc1-c1nc(-c2ccc(F)cc2)c(-c2ccncc2)[nH]1 [SB-213663]	7	0	0	0	0	27	0	0	0	29
O=C1NC(=O)C(c2ccc(Cl)cc2)=C1Nc1cccc(O)c1 [SB-333613]	9	0	23	26	24	26	0	37	1	18
O=C1NC(=O)C(c2ccc(Cl)cc2)=C1Nc1ccccc1 [SB-317661]	0	0	5	0	30	0	0	0	0	0
COc1ccc(C2=C(Nc3cccc(Cl)c3)C(=O)NC2=O)cc1 [SB-326892]	0	16	0	17	22	12	23	10	0	2
O=C(O)c1ccc(-c2nc(-c3ccc(F)cc3)c(-c3ccncc3)[nH]2)cc1 [SB-202620]	0	11	11	16	33	12	0	0	24	10
Cc1ccc(C)c(Oc2nccc(-c3c(-c4ccc(F)cc4)ncn3C3CCNCC3)n2)c1.O=C(O)C(F)(F)F.O=C(O)C(F)(F)F.O=C(O)C(F)(F)F [SB-284852]	0	0	0	0	0	16	17	0	0	100
CSc1ccc(NC2=C(c3cccc(Cl)c3)C(=O)NC2=O)cc1 [SB-341528]	0	0	0	0	6	0	0	1	0	0
O=C1NC(=O)C(c2ccccc2)=C1Nc1ccc(Cl)c(C(=O)O)c1 [SB-390532]	43	20	0	3	0	0	16	0	0	0
Cc1cc(C)cc(Oc2nccc(-c3c(-c4ccc(F)cc4)ncn3C3CCNCC3)n2)c1.O=C(O)C(F)(F)F.O=C(O)C(F)(F)F.O=C(O)C(F)(F)F [SB-284851]	0	27	0	0	0	7	23	0	0	20
O=C1NC(=O)C(c2ccccc2Cl)=C1Nc1ccccc1 [SB-376715]	4	31	0	11	9	0	21	4	0	20
COc1cccc(C2=C(Nc3ccc(SC)cc3)C(=O)NC2=O)c1 [SB-331032]	0	0	0	0	40	23	0	18	4	0
O=C1NC(=O)c2c1c(-c1ccccc1)cc1[nH]c3ccc(O)cc3c21	26	6	84	28	57	90.8	59	35	53	98.9
O=C1NC(=O)C(c2ccccc2Cl)=C1Nc1cccc(C(=O)O)c1 [SB-390526]	0	0	0	23	0	3	0	0	0	0
O=C1NC(=O)C(c2ccc(Cl)cc2)=C1Nc1cccc(C(=O)O)c1 [SB-360737]	0	11	19	19	1	0	16	0	0	6
O=C1NC(=O)C(c2ccccc2)=C1Nc1cc(Cl)c(O)c(Cl)c1 [SB-390530]	42	30	13	21	6	19	10	0	0	5
